Hit rate of the full screen: of about 43,000 compounds, about 200 (0.47%) were called active. Roughly 12% stayed inconclusive and do not appear here. Calls come from the whole dose curve; as a rule, active = well fitted cell-killing curve with a large enough effect; inconclusive = small, poorly fitted or top-dose-only effect, or effect the other way; inactive = flat fitted curve, though single readings scatter. The list shows a part of the results.
Experiment: Cell viability qHTS assay in S16 Pmp22-F2sN cells; note: nearly all actives have a fitted effect of over 65% in size
Details: S16 Pmp22-F2sN Schwann cells (luciferase reporters placed in the Pmp22 gene) viability, CellTiter-Glo, 24 h; series mostly up to 57.5 µM; activity change, negative = cytotoxicity: at the top concentration
Method in brief: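 S16 Schwann cells carrying the Pmp22-F2sN reporter, seeded in 1536-well format, were exposed to library compounds for 24 h at 37C. Viability was read as CellTiter-Glo luminescence after 15 min at room temperature.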
% is set by controls: 0 for no effect and ±100 for the full control effect.

| Compound | activity change, negative = cytotoxicity |
| --- | --- |
| O=C(Cn1c(=O)n(-c2ccccc2)c(=O)c2ccc(C(=O)NCc3ccc4c(c3)OCO4)cc21)Nc1ccc(F)cc1 | inactive: 4.77% |
| COC(=O)c1ccc(CSc2nc3c([nH]c4ccccc43)c(=O)n2-c2ccc(F)cc2)o1 | inactive: 10.3% |
| CCc1cccc(NC(=O)Cn2c(=O)n(-c3ccccc3C)c(=O)c3c2c2cc(C)ccc2n3C)c1 | inactive: 20.6% |
| COc1cc(OC)c(NC(=O)Cn2c(=O)c(C(F)(F)F)nc3ccccc32)cc1Cl | inactive: 2.86% |
| COc1ccc(NCc2cc3cc4c(cc3n(CC(=O)Nc3cccc(F)c3)c2=O)OCO4)cc1 | inactive: 5.49% |
| Cc1cccc(N2CCN(S(=O)(=O)c3cn(C)c(C)n3)CC2)c1C | inactive: 1.25% |
| CCOc1ccccc1C(=O)Oc1c(S(=O)(=O)c2ccc(C)cc2)c(C)nn1-c1ccccc1 | inactive: -0.445% |
| Cc1ccc(CNC(=O)c2ccc(CS(=O)(=O)Cc3ccc(F)cc3)o2)cc1 | inactive: -2.04% |
| CCCCc1nn2c(=O)cc(COC(=O)c3cccc(NC(=O)c4cccc(Cl)c4)c3)nc2s1 | inactive: -0.719% |
| Cc1ccccc1CN1CCc2nc(N3CCN(c4ncccn4)CC3)ncc2C1 | inactive: -21.3% |
| COc1ccc(CCCc2nnc(SCC(=O)Nc3cccc(C)c3)o2)cc1C | inactive: 18.7% |
| O=C(NC1CCCCC1)c1ccc2c(c1)sc1nc(-c3ccc(F)cc3)cn12 | inactive: 8.66% |
| CCOc1ccc(CNC(=O)c2ccc3c(c2)sc2nc(-c4ccccc4)cn23)cc1 | inactive: 1.31% |
| Cn1cnc(S(=O)(=O)N2CCC(C(=O)Nc3ccc(F)cc3F)CC2)c1 | inactive: -0.946% |
| Cc1ccc(-c2noc(CNC(=O)COc3cc(C)c(Br)c(C)c3)n2)cc1 | inactive: 8.84% |
| CCOCCc1nnc(NC(=O)C(=O)c2cc(C)n(-c3cccc(C)c3)c2C)s1 | inactive: -4% |
| O=C(NC1CCCCC1)c1ccc2c(c1)N(Cc1cccc(F)c1)C(=O)c1ccccc1S2 | inactive: 16.2% |
| Cc1ccc(-n2nc(C(=O)N3CCN(c4ccc(F)cc4)CC3)c(=O)n(C)c2=O)cc1 | inactive: 1.77% |
| CN(C)CCN(C(=O)c1ccco1)c1nc2c(F)cc(F)cc2s1 | inactive: 8.51% |
| CC1CCN(C(=O)CSc2c3c(nc4ccc(Cl)cc24)CCCC3)CC1 | inactive: 10.1% |

| Compound | activity change, negative = cytotoxicity |
| --- | --- |
| CC1=C(c2ccc(C(C)C)cc2)S(=O)(=O)NC1=NCc1ccccc1C | inactive: -9.96% |
| Cc1nc2c3ccccc3nc(NNC(=O)CCC(=O)N3CCN(c4cccc(Cl)c4)CC3)n2n1 | inactive: 3.02% |
| Cc1cccc(NC(=O)CSc2nc3ccccc3nc2N2CCC(C)CC2)c1 | inactive: 20.8% |
| COc1ccc(S(=O)(=O)N(CC(=O)Nc2ccc(F)c(Cl)c2)c2ccc(C)cc2)cc1OC | inactive: 9.69% |
| O=C(COc1ccc(F)cc1)Nc1nnc(S(=O)(=O)N2CCc3ccccc32)s1 | inactive: -1.44% |
| Cc1ccc(NC(=O)CSc2nc3ccc(Br)cc3[nH]2)c(C)c1 | inactive: -21.8% |
| Cc1ccc(N2CC(C(=O)NCCS(=O)(=O)N3CCN(c4ccccc4F)CC3)CC2=O)cc1 (stereo not given) | inactive: 6.06% |
| O=C(Nc1ccc(OC(F)(F)F)cc1)C1CCN(S(=O)(=O)c2ccc3[nH]c(=O)ccc3c2)CC1 | inactive: 8% |
| COc1cc(C(=O)N2CCN(CCc3ccncc3)CC2)cc(OC)c1OC | inactive: 13.9% |
| COc1cccc(-n2c(=O)c3c(C)c(C(=O)N(C)C)sc3n(Cc3cccc(C)c3)c2=O)c1 | inactive: -18.8% |
| Cc1ccc(NC(=O)Cn2c(=O)n(CC3CCC(C(=O)NC(C)C)CC3)c(=O)c3sccc32)cc1 (stereo not given) | inactive: 1.64% |
| COc1ccc(-c2nc(C)c(CCNC(=O)C(=O)Nc3ccccc3F)s2)cc1 | inactive: 13.8% |
| COc1ccccc1-n1nc(-c2ccccc2)c2cnc3c(F)cc(F)cc3c21 | inactive: 9.08% |
| COc1ccc(C(CNC(=O)COc2cc(C)cc(C)c2)N2CCCCC2)cc1 (stereo not given) | inactive: -13.7% |
| COc1ccc(NC(=O)CSC2=Nc3ccccc3C3=NC(CC(=O)NCc4ccccc4OC)C(=O)N23)cc1Cl (stereo not given) | inactive: -26.8% |
| COc1ccc(-c2nc3c4ccccc4n(CC(=O)Nc4ccc(C(C)C)cc4)c(=O)n3n2)cc1 | inactive: 13.7% |
| Cc1ccccc1-n1c(SCC(=O)Nc2ccc(Cl)cc2Cl)nc(O)cc1=O | inactive: 2.66% |
| COc1ccc(C2CC(=O)N(Cc3ccccc3C)c3c2c(C)nn3-c2nc(C)cc(C)n2)c(OC)c1 (stereo not given) | inactive: -19.6% |
| COc1ccc(-c2noc(-c3ccc(N4CCN(C)CC4)c([N+](=O)[O-])c3)n2)cc1 | inactive: 16.3% |
| COc1ccc(S(=O)(=O)c2c(O)c(C)cc(NS(=O)(=O)c3ccc(Cl)cc3)c2C(C)C)cc1 | inactive: -25.8% |

| Compound | activity change, negative = cytotoxicity |
| --- | --- |
| Cc1cccc(N(C)S(=O)(=O)c2ccc(-c3cc(C)no3)s2)c1 | inactive: -16.9% |
| CC(=O)N1CCc2c(sc3c2c(=O)n(-c2ccc(F)cc2)c(=O)n3Cc2cc(C)ccc2C)C1 | inactive: 1.18% |
| COc1ccc(N2CC(NC(=O)C(=O)c3c[nH]c4ccccc34)CC2=O)cc1 (stereo not given) | inactive: 0.938% |
| COc1ccc(CNC(=O)CC(C)n2nc(C)cc2C)cc1 (stereo not given) | inactive: -1.7% |
| Cc1ccc(-c2nn(-c3ccc(F)cc3F)c3c2cnc2ccc(F)cc23)cc1 | inactive: -12.7% |
| Cc1cc(C)cc(NC(=O)N2CCC(C(N)=O)(N3CCCCC3)CC2)c1 | inactive: 4.95% |
| COc1ccc(N(C)C(=O)c2nn(-c3ccc(C)cc3)c(=O)n(C)c2=O)c(OC)c1 | inactive: -0.0257% |
| CCOC(=O)N1CCC(NC(=O)c2cnn(-c3ccc(F)cc3)c2-n2cccc2)CC1 | inactive: 12.1% |
| CC1CCCN(c2ncnc3c2cnn3-c2ccc(F)cc2)C1 (stereo not given) | inactive: 10.9% |
| CCN1c2ccccc2-n2cccc2C12CCN(C(=O)Nc1ccccc1Br)CC2 | inactive: -7.26% |
| CCCCn1cc(S(=O)(=O)c2ccccc2)c(=O)c2cc(F)c(N3CCN(CCC)CC3)cc21 | inactive: -14.8% |
| CCOCCn1ccc2c(OCC(=O)NCc3ccc(F)cc3)cccc2c1=O | inactive: 14.3% |
| O=C(CCSCc1cccc(Cl)c1)NCc1ccccc1Cl | inactive: 1.55% |
| CC(C)Oc1ccc(C(=O)N2CCN(c3nc4c(F)cc(F)cc4s3)CC2)cc1 | inactive: 13.5% |
| O=c1c(N2CCN(c3ccccc3)CC2)csc2ccc(Cl)cc12 | inactive: 7.42% |
| Cc1ccc2nc(NC(=O)c3nc(SCc4ccccc4F)ncc3Cl)sc2c1 | inactive: -1.59% |
| Cc1ccc2c(c1)C(=O)C(=O)N2Cc1ccc(OCCC(C)C)cc1 | inactive: -12.3% |
| COc1ccc(NC(=O)c2oc3ccc(S(=O)(=O)N4CCCCC4)cc3c2C)cc1Cl | inactive: 0.0538% |
| COc1ccc(NC(=O)c2cc(C(C)=O)n3ccccc23)cc1 | inactive: 13.9% |
| Cc1ccc(CN2CCC(CNC(=O)c3cnn(-c4ccccc4)c3C3CCN(C(=O)OC(C)(C)C)CC3)CC2)cc1 | inactive: -0.673% |

From PubChem BioAssay AID1508642 (National Center for Advancing Translational Sciences (NCATS), 2021)
